Test results taken from patent US20200361908A1, “CRYSTALS OF ANILINE PYRIMIDINE COMPOUND SERVING AS EGFR INHIBITOR” (CHIA TAI TIANQING PHARMACEUTICAL GROUP CO., LTD., priority 2016, published 2020).

Target: EGFR-L858R/T790M (DM) (Homo sapiens, UniProt P00533, L858R/T790M)
Details: ratio of IC50 EGFR (WT) to IC50 EGFR-L858R/T790M (DM)

Enzyme Activity WT/DM: 12.6
SMILES: C=CC(=O)Nc1cc(Nc2nccc(-n3c(=O)n(C)c4ccccc43)n2)c(OC)cc1N(C)CCN(C)C [Example 1, N-(2-((2-(dimethylamino)ethyl)(methyl)amino)-4-methoxy-5-(4-(3-methyl-2-oxo-2,3-dihydro-1H-benzo[d]imidazol-1-yl)pyrimidin-2-ylamino)phenyl) acrylamide (I) hydrochloride]

Structures can show the parent of a compound that is named as a salt.
